Experimental data: paper PMC4336329 (PLoS ONE, 2015)
Hit rate of the full screen: of about 310,000 compounds, about 14,000 (4.5%) showed an effect of 50% or more. Effects have a minus sign here. The list shows a part of the results.

Biological target: human ether-à-go-go-related gene (hERG) potassium channel (human, UniProt Q12809)
Test: primary screen, population patch clamp on CHO cells stably expressing hERG
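Further: peak tail current of the secondary pulse compared with the same well before compound.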

Chain of human ether-à-go-go-related gene (hERG) potassium channel (Q12809 whole entry, looked up): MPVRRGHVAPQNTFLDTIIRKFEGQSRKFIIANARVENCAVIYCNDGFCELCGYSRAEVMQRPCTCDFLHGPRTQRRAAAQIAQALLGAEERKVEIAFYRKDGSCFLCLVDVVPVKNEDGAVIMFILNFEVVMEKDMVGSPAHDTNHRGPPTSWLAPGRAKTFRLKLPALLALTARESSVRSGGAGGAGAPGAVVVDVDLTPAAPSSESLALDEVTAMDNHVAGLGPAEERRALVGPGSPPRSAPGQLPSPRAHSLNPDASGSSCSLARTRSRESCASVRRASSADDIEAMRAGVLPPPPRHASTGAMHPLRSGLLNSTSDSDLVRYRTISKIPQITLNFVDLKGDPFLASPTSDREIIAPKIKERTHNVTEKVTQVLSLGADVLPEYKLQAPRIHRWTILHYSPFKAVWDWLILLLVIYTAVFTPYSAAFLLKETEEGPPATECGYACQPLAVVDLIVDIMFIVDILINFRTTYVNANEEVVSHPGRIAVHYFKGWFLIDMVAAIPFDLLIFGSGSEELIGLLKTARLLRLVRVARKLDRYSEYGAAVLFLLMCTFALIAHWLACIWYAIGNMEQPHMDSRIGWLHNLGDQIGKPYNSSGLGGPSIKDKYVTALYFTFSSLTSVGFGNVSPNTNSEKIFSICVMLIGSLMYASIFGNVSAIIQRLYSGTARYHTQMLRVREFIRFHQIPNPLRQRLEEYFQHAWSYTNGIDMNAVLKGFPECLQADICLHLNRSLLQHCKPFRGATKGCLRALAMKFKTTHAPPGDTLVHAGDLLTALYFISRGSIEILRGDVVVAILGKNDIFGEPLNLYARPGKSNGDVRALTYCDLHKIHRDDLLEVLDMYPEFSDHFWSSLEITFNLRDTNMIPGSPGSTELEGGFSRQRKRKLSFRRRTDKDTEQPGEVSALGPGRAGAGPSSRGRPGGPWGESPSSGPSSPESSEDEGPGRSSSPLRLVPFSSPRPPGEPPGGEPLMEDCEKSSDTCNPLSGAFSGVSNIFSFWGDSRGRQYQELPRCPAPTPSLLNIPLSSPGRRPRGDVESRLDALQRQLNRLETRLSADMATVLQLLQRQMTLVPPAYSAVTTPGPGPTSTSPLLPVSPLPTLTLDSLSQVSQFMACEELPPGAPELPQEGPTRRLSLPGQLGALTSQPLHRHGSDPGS

Row | SMILES | hERG current change (%, negative = inhibition) at 10uM [%]
1 | C=CCn1c(SCC(=O)NC2CCCC2)nnc1-c1ccncc1 | 16.2
2 | C=CCOc1nc(N2CCCC2)nc(N2CCCC2)n1 | -22.6
3 | CC(/C=C/c1ccccc1F)=N\NC(=O)c1cccc(F)c1 | 8.89
4 | CC(C)(C)c1ccc(OCCC(=O)OCC(=O)Nc2cccnc2Cl)cc1 | -2.33
5 | O=C(Nc1ccccc1N1CCCC1)c1cc(S(=O)(=O)N2CCOCC2)ccc1Cl | -34.5
6 | CN1CCN(C(=O)c2ccc(N3CCCC3=O)cc2)CC1 | 16.2
7 | Cn1c2ccccc2c(=O)c2cc(C#Cc3cccc(N)c3)ccc21 | 12.3
8 | CCn1ccnc1CN1CCC(n2nccc2NC(=O)c2ccccc2OC)CC1 | -69.9
9 | COc1ccc2ccccc2c1CN1CCN(C(=O)c2ccco2)CC1.O=C(O)C(=O)O | -48.7
10 | CCN1CCCC1CNC(=O)c1ccc(CS(=O)(=O)c2ccccc2C)o1 (stereo not shown) | -13.7
11 | CCOC(=O)Cn1c(=O)oc2cc(S(=O)(=O)N(C)c3cccc(C)c3)ccc21 | -30.3
12 | COc1cnn(-c2ccc(F)cc2)c(=O)c1Br | 20.4
13 | CN(NS(=O)(=O)c1ccccc1)c1nc2ccccc2nc1C(F)(F)F | 6.35
14 | O=C(NCCc1ccccc1F)C(=O)Nc1nccs1 | 4.15
15 | CC(C)n1nc(C(=O)NNC(=O)c2ccncc2)c2ccccc2c1=O | 3.56
16 | CCn1c(C)c2c([n+]1CC)CC(C)(C)CC2=O.[I-] | 8.58
17 | CC(=O)Nc1ccc(NS(=O)(=O)c2cc(-c3cnc(C4CC4)o3)ccc2C)cc1 | 20.3
18 | O=C1CN(C(=O)COc2ccc(Cl)cc2Cl)c2ccccc2N1 | 14.2
19 | CN(C/N=C(\N)N[N+](=O)[O-])S(=O)(=O)c1ccccc1 | 19.4
20 | Cc1ccc(OCC(=O)Nc2ccc3c(c2)nc2n3CCOC2)cc1 | -35.9
21 | CCn1cc(/C=C(\NC(=O)c2cc(OC)c(OC)c(OC)c2)C(=O)NCCN2CCOCC2)c2ccccc21 | 10.8
22 | COc1ccc(NC(=S)NCCc2ccccc2OC)c(OC)c1 | -31.6
23 | O=C(CN(Cc1ccccc1)C(=O)c1cccc([N+](=O)[O-])c1)Nc1c(Cl)cc(Cl)cc1Cl | -7.95
24 | COc1ccc(C(=O)CNC2=NCCC2)cc1.Cl | -3.72
25 | CC(C)C(C(=O)OCC(=O)c1ccccc1)N1C(=O)C2C3C=CC(C3)C2C1=O (stereo not shown) | 0.444
26 | CC(=O)Nc1cc(C(=O)N2CCC3(CC2)OCCO3)ccc1S(=O)(=O)c1ccc(C)cc1 | 12.3
27 | Cc1ccc(Sc2ncccc2C(=O)NCc2cc([N+](=O)[O-])ccc2O)c(C)c1 | 17.2
28 | CCOc1cc(/C=N/NC(=O)c2cccnc2)ccc1OCc1ccc(C(=O)OC)o1 | 10.9

Row | SMILES | hERG current change (%, negative = inhibition) at 10uM [%]
29 | O=C(NCC1CCCO1)c1cc2nc(-c3ccco3)cc(C(F)(F)Cl)n2n1 (stereo not shown) | 7.91
30 | CCn1nnnc1SCC(=O)NNC(=O)C1CCCCC1 | -12.7
31 | COc1ccc(OC)c(Cc2nnc(CCC(=O)N3CCN(C4CCCC4)CC3)o2)c1 | -4.69
32 | CC1=C(C(=O)Nc2ccc(C)cc2)C(c2ccc(N(C)C)cc2)NC(=O)N1 (stereo not shown) | 17.5
33 | Cc1ccc(S(=O)(=O)NN2C(=O)/C(=C/c3cccc(F)c3)SC2=S)cc1 | 3.76
34 | CN(CC(=O)NC(=O)NCc1ccccc1)CC(=O)Nc1ccc(Cl)c(C(F)(F)F)c1 | -1.53
35 | O=S(=O)(NCCCCNS(=O)(=O)c1c(F)cccc1F)c1ccc2c(c1)OCCO2 | -5.62
36 | CC(C)(C)n1cccc1/C=C1\C(=O)NC(=O)N(c2ccccc2)C1=O | -13.9
37 | COCCNS(=O)(=O)c1ccc(C2CNC(=O)C2)cc1 (stereo not shown) | 4.09
38 | NC(=O)SCC(=O)Nc1ccc(Cl)cc1 | 15.3
39 | CCn1cc(Br)c(C(=O)NC(=S)Nc2ccc(C(=O)OC)cc2)n1 | -4.48
40 | CCc1nc2oc(C(=O)c3ccccc3)c(N)c2c2c1COC(C)(C)C2 | 12.3
41 | O=C(NCCCSc1ccccc1)c1ccc(=O)[nH]c1 | 21.6
42 | Cc1ccc(OC(=O)N2CCOCC2)cc1 | 18.3
43 | O=C(COc1ccc(F)cc1Cl)Nc1cccc(S(=O)(=O)N2CCCC2)c1 | 5.73
44 | O=C(Nc1ccnn1C1CCN(C2CCOCC2)CC1)c1cccc(F)c1 | -1.9
45 | COc1cccc2c1CCC(NC(C)=O)C2=O (stereo not shown) | 32.9
46 | CC(=O)Nc1ccc(NC(=O)c2ccc(C3SCC(=O)N3CCc3ccccc3)cc2)cc1 (stereo not shown) | 3.22
47 | c1ccc(OCCCn2nnc(-c3ccncc3)n2)cc1 | -10.7
48 | CCOc1cc(/C=C/c2cc(C(=O)O)c3ccccc3n2)ccc1OC | -0.37
49 | CNc1ccccc1C(=O)OCC(=O)Nc1ccc2c(c1)OCO2 | 6.77
50 | Cc1ccc(C(=O)N2CCN(c3ccc(N4CCOCC4)nn3)CC2)cc1C | -21.2
51 | O=C(c1ccc(F)cc1)N1CCC(C(=O)N2CCN(S(=O)(=O)c3cccc([N+](=O)[O-])c3)CC2)CC1 | -34.5
52 | O=C(Cn1c(COc2ccccc2)nc2ccccc21)Nc1cc(Cl)c(Cl)cc1Cl | 1.36
53 | C[C@]12CC[C@@H]3c4ccc(O)cc4CC[C@H]3[C@@H]1CCC2=O | -0.0831
54 | O=C(NNC(=O)c1ccc(O)c(Cl)c1)c1cccc(S(=O)(=O)N2CCOCC2)c1 | 16.3
55 | COCCCNC(=O)CN(c1cc(C(F)(F)F)ccc1Cl)S(C)(=O)=O | -11.7
